# Reference: PubChem BioAssay AID1347417 (National Center for Advancing Translational Sciences (NCATS), 2020)
# In all, about 120,000 compounds went through this assay and about 5,300 (4.4%) were called active. Inconclusive results, whose numbers are uncertain, are shown with a selection of clear calls. Calls follow the shape of the dose curve; as a rule, active = well fitted inhibition curve with a large enough effect; inconclusive = small, poorly fitted or top-dose-only effect; inactive = no such curve, though single readings can be large or run the other way. Where the call is inconclusive, the potency comes from a doubtful curve fit.
# Test: qHTS Primary assay for Inhibitors of Plasmodium falciparum Dd2 growth in vitro; also: nearly all actives have a fitted effect of over 65% in size;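 as to activity, negative = inhibition: plate controls were DMSO vehicle for no effect and reference drug for full effect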
# Conditions: P. falciparum Dd2 growth, SYBR Green, 72 h; activity, negative = inhibition: at 28.9 µM (top of the series) unless noted; series mostly up to 28.9 µM
# Outline: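 Readout: SYBR Green fluorescence, 485 nm excitation, 535 nm emission, after ~16 h lysis at 37C. Before that, Dd2-infected red cells (2.5% hematocrit) grew 72 h with compound, 29 uM top final concentration.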
# Potency is read from the fitted curve at half-maximal effect; tags tell the direction and shape of the fitted curve.
Structure (SMILES),Potency,"activity, negative = inhibition",outcome
CN(Cc1ccccc1)C1CCOC2(CCN(S(=O)(=O)c3ccc(F)cc3)CC2)C1 (stereo not given),"inconclusive: 0.501 µM [inhibitor, partial curve, poor fit]",,
O=C(Nc1cccc(F)c1)N1Cc2[nH]cnc2C[C@H]1c1nc(-c2cccc([N+](=O)[O-])c2)no1,,inactive: -4.4%,
COc1ccc(NC(=O)N[C@@H]2C=C[C@@H](c3c(C)nn(-c4ccc(C(C)C)cc4)c3C)C2)cc1,active: 11.2 µM,,
Cc1ccc(Cl)cc1-n1c(=O)c2sc3ccccc3c2n(Cc2ccccc2)c1=O,"inconclusive: 17.8 µM [inhibitor, single point]",,
CN(CCc1ccccn1)[C@H]1[C@@H]2OC[C@@H](O2)[C@@H](NCc2ccc3c(c2)OCO3)[C@@H]1O,,inactive: -9.23% [at 44.1 µM],
COc1cccc(C(=O)N2c3nc(-c4ccco4)nn3C3(CCCCC3)[C@@H]3CCCC[C@@H]32)c1,"inconclusive: 11.2 µM [inhibitor, single point]",,
COc1cc(OC)cc(-c2nc3nc(C)c(CCC(=O)Nc4ccc(F)cc4F)c(C)n3n2)c1,"inconclusive: 12.6 µM [inhibitor, single point]",,
COCC1CCN(Cc2cn(-c3ccccc3C)nc2-c2ccc(OC)c(F)c2)CC1,active: 10 µM,,
CCC(=O)N1CCC(N(C(=O)CC)C2CCOCC2)CC1,,inactive: -24.2%,
CN(C)S(=O)(=O)n1cc(/C=C(\NC(=O)c2ccccc2Cl)C(=O)NCCCn2ccnc2)c2ccccc21,,,inactive
CCN(CC)CCNC(=O)c1nn(-c2ccc(OC)c(Cl)c2)c(=O)c2c1c1ccccc1n2C,,inactive: 13.4%,
O=C1[C@H]2CN(Cc3ccccc3Cl)C[C@H]2C(=O)N1CCN1CCc2ccccc2C1,"inconclusive: 8.91 µM [inhibitor, single point]",,
COc1ccc(NC(=O)N2CCC(N3CC4CC(C3)[C@H]3CCCC(=O)N3C4)CC2)cc1OC (stereo not given in full),,inactive: 3.09%,
COCCN1CCCCCC(O)c2cc(C(=O)NCc3cc(OC)ccc3OC)ccc21 (stereo not given),"inconclusive: 3.98 µM [inhibitor, single point]",,
CCOC(=O)C1CCN(S(=O)(=O)c2cc3c4c(c2)CC(=O)N4CCC3)CC1,active: 10 µM,,
CCOc1ccccc1CN1CCC2(CCN(C(=O)Cc3ccc(F)cc3)CC2)Oc2ccccc21,active: 8.91 µM,,
Cc1ccccc1Nc1sc(C(=O)c2ccccc2)c(N)c1C(=O)NCc1ccc(Cl)cc1,"inconclusive: 17.8 µM [inhibitor, single point]",,
COc1cc(OC)c(NC(=O)CC(c2cccs2)N2Cc3ccccc3C2=O)cc1Cl (stereo not given),,inactive: -10%,
CCOc1ccccc1CNCCNC(=O)c1nonc1N,"inconclusive: 2.51 µM [inhibitor, full curve]",,
CN(Cc1cccnc1)c1ccc2ncc(Nc3cccc(C(F)(F)F)c3)n2n1,"inconclusive: 3.16 µM [inhibitor, single point]",,
Cc1ccc(Cn2cc(C(=O)c3ccc(F)cc3)c(=O)c3cc4c(cc32)OCCO4)cc1,"inconclusive: 7.94 µM [inhibitor, partial curve]",,
CCC(C)NC(=O)C(NC(=O)c1cccc(OC)c1)C1CCN(C(=O)CC(C)(C)C)CC1 (stereo not given),"inconclusive: 5.62 µM [inhibitor, partial curve, poor fit]",,

Structure (SMILES),Potency,"activity, negative = inhibition",outcome
O=C1CC2(CCN(Cc3ccsc3)CC2)Oc2ccccc2N1,,,inactive [at 44.1 µM]
NC(=O)c1cccnc1N1CCC(n2cc(-c3ccccc3Cl)nn2)CC1,"inconclusive: 7.94 µM [inhibitor, partial curve, poor fit]",,
C[C@@H]1CN(C(=O)Cc2c(F)ccc(Cl)c2F)CC[C@]1(C)O,,inactive: 2.1%,
Cc1cccc(CNC(=O)c2ccc(-c3nnc4ccc(NC(=O)C5CCC5)cn34)cc2)c1,"inconclusive: 1.78 µM [inhibitor, partial curve, poor fit]",,
Cc1ccc(-c2nnc(SCC(=O)NC3CCCC3)nc2-c2ccc(C)cc2)cc1,active: 5.01 µM,,
CN1CCC(N2CCN(C(=O)CCc3ccnc(N4CCOCC4)c3)CC2)CC1,,inactive: -2.14%,
COc1ccc(C2=NOC3(CCCN(C(=O)c4ccc5c(c4)OCO5)C3)C2)cc1 (stereo not given),,inactive: -1.96%,
CC#CCn1cc2c3c(cccc31)[C@H](CC(C)C)N[C@H](C(=O)N1CCC(O)CC1)C2,"inconclusive: 1.12 µM [inhibitor, full curve]",,
COc1cccc(-n2c(-c3ccc(Cl)cc3)cc3c2CC(C)(C)CC3=O)c1,"inconclusive: 12.6 µM [inhibitor, single point]",,
Cc1nc2scc(CC(=O)NCC(C)C)n2c(=O)c1-c1cc(C)n(-c2ccc(C(C)C)cc2)n1,,inactive: -8.22%,
O=[S+]1([O-])NC2(CCCN(Cc3ccc(F)cc3)C2)CNc2ccccc21 (stereo not given),,,inactive
Cc1ccc(C)c(NC(=O)Cn2c(-c3cccc(Cl)c3)nc(C)c(CCO)c2=O)c1,"inconclusive: 17.8 µM [inhibitor, single point]",,
COCCN1C(=O)[C@@H]2C[C@@H](CN2Cc2ccc(OC)nc2)Oc2ccccc21,"inconclusive: 5.62 µM [inhibitor, partial curve]",,
CC(C)NC(=O)N1CCOc2ccc(CCC(=O)O)cc2C1,,inactive: 7.46%,
COc1ccc(CC(=O)N2CCC(N3CC4CC(C3)[C@H]3CCCC(=O)N3C4)CC2)cc1 (stereo not given in full),,inactive: 4.55%,
COCCn1c(CO)nnc1C1CC(NC(=O)c2ccc(F)cc2F)C1 (stereo not given),"inconclusive: 3.98 µM [inhibitor, single point]",,
COc1cccc(-c2cc(C3CCN(C(=O)Nc4ccc(OC)c(OC)c4)CC3)[nH]n2)c1,"inconclusive: 17.8 µM [inhibitor, single point]",,
O=C1Nc2ccccc2O[C@H]2C[C@@H]1N(Cc1ccc(C(F)(F)F)cc1)C2,"inconclusive: 31.6 µM [inhibitor, single point]",,
COc1ccccc1-c1cc2[nH]ccc2c(C(=O)NCc2c(C)cc(C)[nH]c2=O)n1,"inconclusive: 0.501 µM [inhibitor, full curve, poor fit]",,
C[C@H](c1ccccc1)N1C(=O)[C@@H]2CN(C(=O)c3cccs3)CCN2C1=O,,inactive: -8.48% [at 44.1 µM],
COCC(=O)N[C@@H]1CN(C2CCOCC2)CC[C@@H]1CO,,inactive: 4.95%,
COc1ccccc1CN(C)C(=O)CC1C(=O)NCCN1CC1CCCCC1 (stereo not given),"inconclusive: 6.31 µM [inhibitor, partial curve, poor fit]",,

Structure (SMILES),Potency,"activity, negative = inhibition",outcome
CN1C(=O)CC[C@]2(C(=O)NCc3ccc(Cl)cc3)CCCC[C@@H]12,"inconclusive: 11.2 µM [inhibitor, partial curve, poor fit]",,
COc1ccc(-c2nnc3ccc(N4C[C@@H](C)O[C@@H](C)C4)nn23)nc1,"inconclusive: 3.55 µM [inhibitor, partial curve, poor fit]",,
CCn1cc(-c2ccccc2)cc1C(=O)NC(C)c1cccnc1 (stereo not given),"inconclusive: 17.8 µM [inhibitor, single point]",,
O=C(Cc1ccccc1)Nc1sc2c(c1C(=O)Nc1ccccc1)CCCCC2,"inconclusive: 10 µM [inhibitor, single point]",,
COc1cccc(-c2nn3c(=O)cc(CN4CCN(S(=O)(=O)c5ccc(C)cc5)CC4)nc3s2)c1,"inconclusive: 0.631 µM [inhibitor, full curve, poor fit]",,
CCc1cccc(NC(=O)Cn2ccn3nc(-c4ccc(F)cc4)c(CO)c3c2=O)c1,,inactive: 18.5%,
Nc1nc(CCC(=O)N2CC[C@@H](NC(=O)c3cccnc3)[C@H](O)C2)cs1,,inactive: 1.49%,
O=C(Nc1cccc(Br)c1)N1CCC2(CC1)SCC(=O)N2Cc1ccccc1,"inconclusive: 11.2 µM [inhibitor, single point]",,
COCCCn1c(=N)c(C(=O)NCC2CCCO2)cc2c(=O)n3cc(C)ccc3nc21 (stereo not given),"inconclusive: 0.794 µM [inhibitor, full curve, poor fit]",,
COc1cccc(C2Cn3nnc(-c4nc(-c5ccc(OC(C)C)cc5)no4)c3CO2)c1 (stereo not given),,inactive: -20.4%,
CCc1ccc(CNC(=O)c2cc3cc(S(=O)(=O)N4CCCCC4)ccc3n2C)cc1,"inconclusive: 12.6 µM [inhibitor, single point]",,
CC1Oc2ccc(NC(=O)c3ccccc3F)cc2CN(CCOc2ccccc2)C1=O (stereo not given),"inconclusive: 1.58 µM [inhibitor, full curve]",,
O=C(NC1CCCc2c1[nH]c1ccccc21)c1ccc(Br)o1 (stereo not given),"inconclusive: 20 µM [inhibitor, single point]",,
Cc1ccc(-n2c(/C=C/c3ccc(Br)s3)nc3ccccc3c2=O)cc1C,"inconclusive: 17.8 µM [inhibitor, single point]",,
COc1ccc(F)cc1CN1CCC(O)(CN2CCCCC2)C1 (stereo not given),"inconclusive: 7.08 µM [inhibitor, partial curve]",,
Cc1nc(-c2cn(C3CCCN(C(=O)c4ccc(C(C)(C)C)cc4)C3)nn2)no1 (stereo not given),"inconclusive: 7.94 µM [inhibitor, partial curve, poor fit]",,
COc1cccc(CNCCSc2nnnn2C)c1OCc1ccccc1,"inconclusive: 1.12 µM [inhibitor, partial curve, poor fit]",,
CN(C)c1ccc(CN2CCC23Cc2ccccc2NC3=O)cc1 (stereo not given),"inconclusive: 3.55 µM [inhibitor, full curve, poor fit]",,
Cn1nc(C(=O)NC2CCCN(c3cc(-c4ccc(F)cc4)[nH]n3)C2)c2ccccc21 (stereo not given),,inactive: -10.4%,
COc1cccc(-c2cn3c(n2)sc2cc(C(=O)NCCCc4ccccc4)ccc23)c1,"inconclusive: 15.8 µM [inhibitor, single point]",,
CSc1ccc(CNC(=O)C2CCCN(S(=O)(=O)N(C)c3ccc(F)cc3)C2)cc1 (stereo not given),"inconclusive: 17.8 µM [inhibitor, single point]",,
